Hit rate of the full screen: of about 150,000 compounds, about 540 (0.36%) showed an effect of 50% or more. Some of the results follow.

This assay deals with Plasmodium falciparum. As to the kind of experiment: Primary screen in NF54 nanoGlo assay, in single point, at 2uM, 72h; a lower Z score goes with more inhibition. Type of assay: functional, Erythrocyte. As to conditions: timepoint 72 hour.
In the case of `O=C(Nc1ccc(Oc2ccc(CO)cc2)cc1)c1ccncc1F`, the % Inhibition (in general, the drop in the measured response relative to a control, in per cent) is -10% and the Z score turned out to be 1.24.

Turning to `COc1cc2c(cc1CN1CCC3(CC1)Cc1cn(nn1)CCCNC(=O)[C@H](Cc1ccccc1)NC3=O)OCO2`, the “% Inhibition” value is recorded as -8% and the Z score turned out to be 1.52.

For `CC(C)Cn1cncc1CN1CCS(=O)(=O)CC1`, the “% Inhibition” value is -6% and the Z score is 1.02.

With `Cn1ncnc1CCNC(=O)C[C@@H]1C[C@@H]2C=C[C@H]1C2`, the “% Inhibition” value was -11% and the Z score is reported as 1.41.

Consider `Cn1ccc(C(=O)N2CCC[C@H](CCc3c(F)cccc3F)C2)n1`, for which the “% Inhibition” value is listed as -8% and the Z score worked out at 1.17.

With `COc1ccccc1Cc1nc(Cc2nonc2C)n(CCO)n1`, the “% Inhibition” value is recorded as -9% and the Z score was found to be 1.71.

As for `COc1ccccc1NS(=O)(=O)c1cc(-c2c(C)nn3c2NC(=O)CCC3=O)ccc1OC`, the “% Inhibition” value was found to be 0% and the Z score stood at 0.02.

For `CNC(=O)Cn1cc(NC[C@@]2(C)C[C@@H]2c2ccccc2)cn1`, the “% Inhibition” value was -5% and the Z score worked out at 0.8.

For `Cn1ncc(Cl)c1C(=O)N(C(=O)c1c(Cl)cnn1C)c1ccccc1C(F)(F)F`, the “% Inhibition” value is reported as -10% and the Z score was 1.39.

As to `Cc1ccc(CCNC(=O)c2cncc(Br)c2)cn1`, the “% Inhibition” value is recorded as -11% and the Z score is 2.14.

As for `CCc1nc2cc(C(=O)N(C)Cc3ccn[nH]3)cc(NC(=O)c3ccccc3OC)c2n1C`, the “% Inhibition” value is -2% and the Z score came out at 0.22.

As for `Cc1nccc(CNC(=O)[C@@H](CC2CCCCC2)C(C)C)n1`, the “% Inhibition” value is -4% and the Z score is 0.67.

For `C[C@@H](CN1CCOCC1)C(=O)NCc1ccc(-c2ncon2)cc1`, the “% Inhibition” value is -9% and the Z score was found to be 1.56.

Turning to `CC(C)(C)c1noc(CNC(=O)N2CCC[C@H]2C(N)=O)n1`, the “% Inhibition” value was -9% and the Z score stood at 1.44.

With `Cc1cccc(C)c1C(=O)NC1CC2(CCNC2)Oc2ccccc21` (centres undefined), the “% Inhibition” value stood at 4% and the Z score was -0.38.

In the case of `CC(=O)Nc1ccc(Oc2cccc3[nH]ccc23)nc1`, the “% Inhibition” value turned out to be 35% and the Z score is recorded as -3.94.

Regarding `O=C(Nc1nc(-c2ccc(Oc3ccccc3)cc2)cs1)c1ccc(Cl)s1`, the “% Inhibition” value was -13% and the Z score was 2.26.

On to `O=C(NCC1CCN(S(=O)(=O)c2ccc(Cl)s2)CC1)c1ccnnc1`, for which the “% Inhibition” value is -3% and the Z score amounted to 0.43.

Consider `O=C(NC[C@H]1COCCO1)Nc1cccc(F)c1`, for which the “% Inhibition” value is on record as -12% and the Z score is 1.67.

As to `COCCNC(=O)Cn1c(=O)n(CCc2cccs2)c(=O)c2sccc21`, the “% Inhibition” value was -2% and the Z score amounted to 0.23.

As to `O=C1CC(Cc2ccc(C(=O)NC3CCN(c4ccccc4Cl)C3=O)cc2)C(=O)N1` (centres undefined), the “% Inhibition” value is on record as -9% and the Z score is on record as 1.16.

As for `OCC1CCN(CCCOCCc2ccccc2)CC1`, the “% Inhibition” value was found to be 12% and the Z score is listed as -1.5.

With `CCCCc1nc(CN2CCc3nocc3C2)c[nH]1`, the “% Inhibition” value is -6% and the Z score is 1.06.

Regarding `O=C1CCCN1c1ccc(NCc2cnn(Cc3ccc(F)cc3)c2)nc1`, the “% Inhibition” value was -10% and the Z score stood at 1.39.

As for `Cc1ccc(Oc2ccccc2CNC(=O)[C@@H]2CCC(=O)N2)cc1`, the “% Inhibition” value stood at 31% and the Z score is given as -4.53.

Take `Cc1cccc(S(=O)(=O)Nc2ccc(-c3ccc4nncn4n3)cc2)c1`: the “% Inhibition” value is reported as -10% and the Z score is listed as 1.35.

In the case of `C[C@H](NC(=O)Cc1ccccc1O)c1csc(C2CC2)n1`, the “% Inhibition” value was 5% and the Z score is reported as -0.69.

Consider `Cc1cc(NCc2cnn(C)c2)nc2cc3c(cc12)CCC3`, for which the “% Inhibition” value is -5% and the Z score stood at 0.79.

Turning to `O=C(Nc1cc(F)c(F)c(F)c1)c1cn(C[C@H](O)c2cccs2)nn1`, the “% Inhibition” value was 4% and the Z score was -0.76.

Take `CCc1oc2c(NC(=O)[C@@H]3CC[C@H](N)C3)cc(Cl)cc2c1C`: the “% Inhibition” value is -12% and the Z score came to 2.19.

Regarding `COc1ccc2cc(C(=O)NC(c3ccccn3)[C@H]3C[C@@H](O)C3)n(C)c2c1` (some centres undefined), the “% Inhibition” value is on record as -7% and the Z score worked out at 1.02.

As for `O=C(Nc1nc(-c2ccc3c(c2)OCCO3)cs1)c1cccc(S(=O)(=O)N2CCCCC2)c1`, the “% Inhibition” value is given as 6% and the Z score is reported as -0.98.

With `CC(=O)N(Cc1ccc(NC(=O)NCC2CCOCC2)cc1)C(C)C`, the “% Inhibition” value is 3% and the Z score is -0.48.

For `O=C(NCCc1nc2ccccc2[nH]1)[C@@H]1CNCCO1`, the “% Inhibition” value was -12% and the Z score came out at 1.38.

With `O=C(NC1CC1)NC1C2CCC(C2)C1CO` (centres undefined), the “% Inhibition” value came to 1% and the Z score was -0.09.

Take `Cc1cc(Br)cnc1NC[C@H](O)c1ccco1`: the “% Inhibition” value is reported as -5% and the Z score was found to be 0.68.

With `C[C@H]1CCc2n[nH]c(C(=O)N(C)Cc3nc4ccccc4c(=O)[nH]3)c2C1`, the “% Inhibition” value is given as -4% and the Z score was determined as 0.71.

Regarding `CCCC(=O)NC[C@@H](CO)Cc1ccc(OC)c(Br)c1`, the “% Inhibition” value is given as -3% and the Z score worked out at 0.58.

Consider `O=C(C1CCCCC1)N1CC(c2nc(-c3ccc4c(c3)CCC4)no2)C1`, for which the “% Inhibition” value was -7% and the Z score amounted to 1.24.

`O=C(O)c1cc(-n2ccnc2)nc2ccccc12`: the “% Inhibition” value is recorded as -5% and the Z score is recorded as 0.61.

As to `CC1=NN(c2ccc(Cl)cc2)C(=O)C12Cc1cc(Br)ccc1N1CCN(c3ncccn3)CC12` (centres undefined), the “% Inhibition” value is on record as 10% and the Z score was -1.21.

Take `C[C@H](NS(C)(=O)=O)c1nc(CC(N)=O)nn1-c1cccc2c1CCC2`: the “% Inhibition” value is -16% and the Z score amounted to 2.04.

These data come from ChEMBL document CHEMBL4888484, “Replenishing the malaria drug discovery pipeline: Screening and hit evaluation of the MMV Hit Generation Library 1 (HGL1) against asexual blood stage Plasmodium falciparum ,using a nano luciferase reporter read-out” (2022).
